{"source": "the supplement of paper PMC3334620", "note": "In all, about 33,000 sequences were measured (“E-score (-0.5 to 0.5)”: median about -0.04, highest 2% from about 0.36 on). The list shows a part of the results."}
{"target": "T1, Hmlalpha2 (UniProt P0CY09)", "T1 sequence": "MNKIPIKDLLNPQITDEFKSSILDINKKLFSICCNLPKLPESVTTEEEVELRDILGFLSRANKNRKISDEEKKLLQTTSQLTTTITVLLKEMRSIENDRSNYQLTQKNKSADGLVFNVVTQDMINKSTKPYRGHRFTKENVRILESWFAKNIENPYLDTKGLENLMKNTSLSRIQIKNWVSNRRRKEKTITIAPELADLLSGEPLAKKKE", "assay": "PBM E-score (8-mer binding enrichment) (E-score (-0.5 to 0.5)); higher = stronger / more preferred TF binding; most listed sequences are background and not binding sites", "settings": "protein concentration: 200 nM; construct: GST-full length", "description": "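Universal 'all 10-mer' protein binding microarrays (Agilent AMADID 015681) probed with GST-tagged S. cerevisiae TFs (full-length or DBD) made by in vitro transcription/translation (PURExpress), about 100-200 nM. Bound TF was detected with fluorescent anti-GST. Each ungapped 8-mer (which stands for itself and its reverse complement) is scored by the PBM enrichment score (E-score), a modified Wilcoxon-Mann-Whitney statistic from -0.5 to +0.5, computed with the Universal PBM Analysis Suite. Scale: above 0.35 generally sequence-specific binding.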"}
{"sequence": "ATATTGAG", "PBM E-score": -0.00475}
{"sequence": "AAGCTAAC", "PBM E-score": 0.0831}
{"sequence": "CTCCCTGA", "PBM E-score": -0.27}
{"sequence": "CTACCTGA", "PBM E-score": -0.0237}
{"sequence": "CACCAAAG", "PBM E-score": -0.0791}
{"sequence": "ACGGAGAA", "PBM E-score": -0.0887}
{"sequence": "AGACCCAT", "PBM E-score": -0.164}
{"sequence": "AATTGCCT", "PBM E-score": -0.0627}
{"sequence": "CCGTCTTC", "PBM E-score": -0.236}
{"sequence": "CAATTTCC", "PBM E-score": -0.0918}
{"sequence": "ATACATCC", "PBM E-score": 0.308}
{"sequence": "GATGCAGC", "PBM E-score": -0.103}
{"sequence": "CAACTAGG", "PBM E-score": 0.0499}
{"sequence": "AGCGCTGG", "PBM E-score": -0.307}
{"sequence": "AGGCCGAT", "PBM E-score": -0.0701}
{"sequence": "AATCCATT", "PBM E-score": 0.101}
{"sequence": "AACTTCCA", "PBM E-score": -0.0149}
{"sequence": "ATGATCTC", "PBM E-score": -0.111}
{"sequence": "CAACCGCA", "PBM E-score": -0.0431}
{"sequence": "CACCACCC", "PBM E-score": -0.155}
{"sequence": "CGTACTTA", "PBM E-score": 0.172}
{"sequence": "AACTTGGG", "PBM E-score": -0.199}
{"sequence": "GACCGCCA", "PBM E-score": -0.119}
{"sequence": "AAGCTCGC", "PBM E-score": -0.047}
{"sequence": "CGTGAGTA", "PBM E-score": 0.0575}
{"sequence": "AAATAGTC", "PBM E-score": -0.143}
{"sequence": "GAGAAGGC", "PBM E-score": -0.242}
{"sequence": "CGAGGTGA", "PBM E-score": -0.103}
{"sequence": "GGAATCTA", "PBM E-score": -0.132}
{"sequence": "CCATGGGG", "PBM E-score": -0.116}
{"sequence": "CACTCCCC", "PBM E-score": -0.117}
{"sequence": "CACTCTGG", "PBM E-score": -0.109}
{"sequence": "AGCCAATA", "PBM E-score": 0.0379}
{"sequence": "CATATTGG", "PBM E-score": 0.0466}
{"sequence": "CTTGGCGC", "PBM E-score": -0.0914}
{"sequence": "CGATAGAA", "PBM E-score": -0.136}
{"sequence": "GAAATCAA", "PBM E-score": -0.0375}
{"sequence": "CAGTTCGC", "PBM E-score": -0.182}
{"sequence": "AATAAAGC", "PBM E-score": -0.0138}
{"sequence": "AGACCCGC", "PBM E-score": -0.0103}
{"sequence": "AGGATCGG", "PBM E-score": -0.107}
{"sequence": "TAAATCAA", "PBM E-score": 0.158}
{"sequence": "GATCAGCA", "PBM E-score": -0.155}
{"sequence": "ACCGGAGG", "PBM E-score": -0.147}
{"sequence": "AGACCCCA", "PBM E-score": -0.227}
{"sequence": "ACAGAGGA", "PBM E-score": -0.0117}
{"sequence": "TGAGCCCA", "PBM E-score": -0.171}
{"sequence": "ATGAGACG", "PBM E-score": -0.154}
{"sequence": "ACGGATCG", "PBM E-score": -0.0949}
{"sequence": "ACGGTCTA", "PBM E-score": -0.0135}
{"sequence": "GCACGGAC", "PBM E-score": -0.0335}
{"sequence": "ACGTATTG", "PBM E-score": 0.292}
{"sequence": "TGCTTACA", "PBM E-score": 0.305}
{"sequence": "CGCGTCTA", "PBM E-score": 0.191}
{"sequence": "AGCAACAG", "PBM E-score": -0.0259}
{"sequence": "GCTCCGGA", "PBM E-score": -0.136}
{"sequence": "CTGACACA", "PBM E-score": 0.124}
{"sequence": "CACTGTAA", "PBM E-score": 0.171}
{"sequence": "ATAAGAAG", "PBM E-score": -0.00544}
{"sequence": "ACAAGAGT", "PBM E-score": 0.128}
{"sequence": "ATGTTCAG", "PBM E-score": 0.187}
{"sequence": "CATTACTA", "PBM E-score": 0.225}
{"sequence": "ATACGCCC", "PBM E-score": -0.166}
{"sequence": "GAGGGGGC", "PBM E-score": -0.37}
{"sequence": "CAAGCAGC", "PBM E-score": 0.00857}
{"sequence": "ATCCACGA", "PBM E-score": 0.0346}
{"sequence": "AGGTTCTA", "PBM E-score": -0.0454}
{"sequence": "AAAATGCT", "PBM E-score": 0.063}
{"sequence": "GGAGTTAA", "PBM E-score": 0.0478}
{"sequence": "ATCAGTGA", "PBM E-score": 0.0117}
{"sequence": "CGATGTCC", "PBM E-score": -0.211}
{"sequence": "CCTATGAC", "PBM E-score": -0.234}
{"sequence": "CGTGGTCC", "PBM E-score": -0.0571}
{"sequence": "AGAAGGTA", "PBM E-score": 0.105}
{"sequence": "AGTTGAGC", "PBM E-score": -0.0253}
{"sequence": "CTGGCGAA", "PBM E-score": -0.103}
{"sequence": "CCACAGGG", "PBM E-score": -0.191}
{"sequence": "AAGTCGAG", "PBM E-score": -0.0575}
{"sequence": "GTTTAGAA", "PBM E-score": 0.156}
{"sequence": "GTTCATTA", "PBM E-score": 0.167}
{"sequence": "GGCCCGCC", "PBM E-score": -0.354}
{"sequence": "CAGTCTTA", "PBM E-score": 0.0157}
{"sequence": "CATTGCTC", "PBM E-score": -0.237}
{"sequence": "GAAAATAA", "PBM E-score": 0.158}
{"sequence": "AACTAAGC", "PBM E-score": 0.144}
{"sequence": "ACCAGGTG", "PBM E-score": -0.11}
{"sequence": "GAGACCCA", "PBM E-score": -0.279}
{"sequence": "GAAAACTC", "PBM E-score": 0.167}
{"sequence": "ATTCGTTC", "PBM E-score": 0.025}
{"sequence": "AGAAGGAC", "PBM E-score": -0.207}
{"sequence": "CTGAGATC", "PBM E-score": -0.258}
{"sequence": "ATCTGAGC", "PBM E-score": -0.0204}
{"sequence": "CGAGGCAG", "PBM E-score": -0.23}
{"sequence": "ATTTCAAC", "PBM E-score": 0.223}
{"sequence": "TCATGCGA", "PBM E-score": -0.0821}
{"sequence": "AAGTTGGG", "PBM E-score": -0.117}
{"sequence": "ACGACGGA", "PBM E-score": -0.0664}
{"sequence": "CAGGGAGA", "PBM E-score": -0.194}
{"sequence": "TACCTCTA", "PBM E-score": 0.0624}
{"sequence": "CTCCGAGA", "PBM E-score": -0.119}
{"sequence": "ATTTCGCG", "PBM E-score": 0.135}
{"sequence": "GGAAACTA", "PBM E-score": -0.172}
{"sequence": "AACTCTGC", "PBM E-score": -0.215}
{"sequence": "CAACCCGA", "PBM E-score": -0.0172}
{"sequence": "AAACTACC", "PBM E-score": -0.00289}
{"sequence": "AGGAGTGA", "PBM E-score": -0.0561}
{"sequence": "ATTAATTA", "PBM E-score": 0.243}
{"sequence": "ACGTGGCC", "PBM E-score": -0.0936}
{"sequence": "CGTTTCGA", "PBM E-score": 0.0352}
{"sequence": "ACGCGAAG", "PBM E-score": 0.217}
{"sequence": "AAACACGG", "PBM E-score": 0.371}
{"sequence": "AGAGGGGG", "PBM E-score": -0.314}
{"sequence": "ACATGGCA", "PBM E-score": 0.364}
{"sequence": "ACATTGTG", "PBM E-score": 0.193}
{"sequence": "CAAGCACG", "PBM E-score": 0.0774}
{"sequence": "AACCCCAT", "PBM E-score": -0.0917}
{"sequence": "GACTCCCC", "PBM E-score": -0.32}
{"sequence": "AACCCCAC", "PBM E-score": -0.162}
{"sequence": "GCGGCGTA", "PBM E-score": -0.0122}
{"sequence": "AAGAATGA", "PBM E-score": 0.0309}
{"sequence": "GCGACAGC", "PBM E-score": -0.266}
{"sequence": "AAGATGCT", "PBM E-score": -0.0878}
{"sequence": "ACTCCAGC", "PBM E-score": -0.291}
{"sequence": "CCAATCCA", "PBM E-score": -0.197}
{"sequence": "CCCGTCCG", "PBM E-score": -0.301}
{"sequence": "CCTCGACG", "PBM E-score": -0.172}
{"sequence": "CGGCCCAG", "PBM E-score": -0.286}
{"sequence": "ACCGTCAT", "PBM E-score": -0.0314}
{"sequence": "ACCACTAG", "PBM E-score": -0.134}
{"sequence": "AACCTTGT", "PBM E-score": 0.101}
{"sequence": "CGCTAGCG", "PBM E-score": -0.205}
{"sequence": "CAGGGGTA", "PBM E-score": -0.217}
{"sequence": "TCTTCCCA", "PBM E-score": -0.178}
{"sequence": "TACCGATA", "PBM E-score": -0.0558}
{"sequence": "CAATTTTA", "PBM E-score": 0.112}
{"sequence": "AGGGTTGG", "PBM E-score": -0.0105}
{"sequence": "AATTGTCT", "PBM E-score": 0.0105}
{"sequence": "GCCTCAGA", "PBM E-score": -0.2}
{"sequence": "CGAACTCC", "PBM E-score": 0.111}
{"sequence": "CAACCCCG", "PBM E-score": -0.26}
{"sequence": "GCGGACAC", "PBM E-score": -0.0951}
{"sequence": "GCCTATAA", "PBM E-score": -0.121}
{"sequence": "AACCCAGC", "PBM E-score": 0.0236}
{"sequence": "AAAGCTGG", "PBM E-score": -0.134}
{"sequence": "AGAATTTG", "PBM E-score": -0.0388}
{"sequence": "GTGTCAAC", "PBM E-score": 0.305}
{"sequence": "CACAGTCG", "PBM E-score": -0.0552}
{"sequence": "ATGCAACA", "PBM E-score": 0.265}
{"sequence": "AACCAGGG", "PBM E-score": -0.0827}
{"sequence": "TATATCCA", "PBM E-score": 0.0304}
{"sequence": "GTAGGAAA", "PBM E-score": 0.103}
{"sequence": "AGCTCCCG", "PBM E-score": -0.352}
{"sequence": "CATTCAAA", "PBM E-score": 0.0527}
{"sequence": "ATATATAC", "PBM E-score": 0.345}
{"sequence": "GCTCCGTA", "PBM E-score": -0.0781}
{"sequence": "CGCTGCAC", "PBM E-score": -0.00467}
{"sequence": "CTGTTAAA", "PBM E-score": 0.258}
{"sequence": "GCCGTAAC", "PBM E-score": -0.0564}
{"sequence": "ACCAGGGG", "PBM E-score": -0.359}
{"sequence": "AAATCGAG", "PBM E-score": -0.0386}
{"sequence": "CCATGTAC", "PBM E-score": 0.398}
{"sequence": "CGGCCTTC", "PBM E-score": -0.183}
{"sequence": "ACTAATAC", "PBM E-score": 0.265}
{"sequence": "GGTTTGTA", "PBM E-score": 0.259}
{"sequence": "CGGCACAA", "PBM E-score": 0.00623}
{"sequence": "AAATCCGC", "PBM E-score": -0.125}
{"sequence": "GACCCACA", "PBM E-score": -0.0821}
{"sequence": "AGATGTTC", "PBM E-score": 0.0875}
{"sequence": "ACAATTCG", "PBM E-score": 0.129}
{"sequence": "CCGCCCGA", "PBM E-score": -0.212}
{"sequence": "ATACGAAA", "PBM E-score": 0.212}
{"sequence": "CAAGCCAC", "PBM E-score": -0.174}
